These results are taken from PubChem BioAssay AID2060604 (Molecular Pharmacology Branch, DTP, NCI, 2025).

Some entries of the source have several records that differ or are many. This is not the full list of results. There may be further records. The records of an entry are repeated measurements across runs, samples, wells, individuals or studies.

The experiment has as its system 379773-124-R-J2-PDC complex spheroids, viability % test/control. Briefly: Anticancer human tumor 379773-124-R-J2-PDC patient-derived endometrial carcinoma cell line growth inhibition [CLK]. The following applies: compound alone 0.1 µM; stronger effect = lower value. The text has this: A high-throughput screen of multi-cell type tumor spheroids was designed to identify active combinations of […] and targeted small molecules. Complex spheroids include a stromal component modeled by human endothelial cells (HUVEC) and fibroblasts modeled by human mesenchymal stem cells (MSCs). The concentration ranges selected for each drug and investigational agent were based upon clinically achievable concentrations if the clinical Cmax of the agent was known.
Compounds. The drugs and investigational agents: cirtuvivint (SM08502; NSC835563), CC-671 (NSC850746), vemurafenib (NSC761431), tapotoclax (NSC804041), sotorasib (NSC818433), adagrasib (NSC831453), MRTX-1133 (NSC836407), BAY2416964 (NSC825713), copanlisib (NSC816437), inavolisib (NSC800729), abemaciclib (NSC768073), osimertinib (NSC779217), entinostat (NSC756642), eltanexor (KPT-8602, NSC794443), venetoclax (NSC766270), ceralasertib (NSC777638), bortezomib (NSC756655), olaparib (NSC753686), talazoparib (NSC767125), alisertib (NSC759677), peposertib (NSC802822), gemcitabine (NSC613327), 5-fluorouracil (NSC19893), SN-38 (NSC673596), oxaliplatin (NSC266046), paclitaxel (NSC125973), and doxorubicin (NSC123127), were obtained from the National Cancer Institute (NCI) Developmental Therapeutics Program Chemical Repository. […] If the clinical Cmax for an agent had not been determined, the highest concentration tested was 10 microM. […]
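Further: compound exposure lasted seven days before the viability readout; 100% = DMSO vehicle control wells.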

With `CN1CCN(c2cc(C(=O)Nc3cc4cc(-c5cnn(C)c5)ccc4cn3)ccn2)CC1`, the viability, T/C (usually the ratio of treated to control) was 95.1, 90.5, 81.9, 80.3, 68.3, 87.5, 79.2, 80.8, 83, 87.7, 80.5, 90.4%.
